Data from article PMC5062570 (Nature Communications, 2016).

Assays:
[1] = biological target: PF-7802-labelled proteins in ARPE-19 cells (Homo sapiens, UniProt P11142)
[2] = biological target: PF-7802-labelled proteins in ARPE-19 cells (Homo sapiens, UniProt P00505); settings: P00505 GOT2 Aspartate aminotransferase, mitochondrial
[3] = biological target: PF-7802-labelled proteins in ARPE-19 cells (Homo sapiens, UniProt P68133)
[4] = biological target: PF-7802-labelled proteins in ARPE-19 cells (Homo sapiens, UniProt P45880)
Sequence of UniProt P45880 (P45880 whole entry): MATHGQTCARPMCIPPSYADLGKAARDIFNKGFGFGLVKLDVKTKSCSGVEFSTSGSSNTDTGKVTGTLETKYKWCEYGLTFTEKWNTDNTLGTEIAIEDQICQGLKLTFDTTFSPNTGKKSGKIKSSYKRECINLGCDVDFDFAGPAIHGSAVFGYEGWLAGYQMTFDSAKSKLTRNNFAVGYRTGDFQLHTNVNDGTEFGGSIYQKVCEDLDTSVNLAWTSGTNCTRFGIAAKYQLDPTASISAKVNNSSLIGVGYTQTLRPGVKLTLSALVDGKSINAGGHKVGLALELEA

[5] = biological target: PF-7802-labelled proteins in ARPE-19 cells (Homo sapiens, UniProt Q02878)
[6] = biological target: PF-7802-labelled proteins in ARPE-19 cells (Homo sapiens, UniProt Q00610)
[7] = biological target: PF-7802-labelled proteins in ARPE-19 cells (Homo sapiens, UniProt P38606); settings: protein ATP6V1A V-type proton ATPase catalytic subunit A (P38606)
[8] = biological target: PF-7802-labelled proteins in ARPE-19 cells (Homo sapiens, UniProt P06576)
[9] = biological target: PF-7802-labelled proteins in ARPE-19 cells (Homo sapiens, UniProt P23634)
Sequence of UniProt P23634 (P23634 whole entry): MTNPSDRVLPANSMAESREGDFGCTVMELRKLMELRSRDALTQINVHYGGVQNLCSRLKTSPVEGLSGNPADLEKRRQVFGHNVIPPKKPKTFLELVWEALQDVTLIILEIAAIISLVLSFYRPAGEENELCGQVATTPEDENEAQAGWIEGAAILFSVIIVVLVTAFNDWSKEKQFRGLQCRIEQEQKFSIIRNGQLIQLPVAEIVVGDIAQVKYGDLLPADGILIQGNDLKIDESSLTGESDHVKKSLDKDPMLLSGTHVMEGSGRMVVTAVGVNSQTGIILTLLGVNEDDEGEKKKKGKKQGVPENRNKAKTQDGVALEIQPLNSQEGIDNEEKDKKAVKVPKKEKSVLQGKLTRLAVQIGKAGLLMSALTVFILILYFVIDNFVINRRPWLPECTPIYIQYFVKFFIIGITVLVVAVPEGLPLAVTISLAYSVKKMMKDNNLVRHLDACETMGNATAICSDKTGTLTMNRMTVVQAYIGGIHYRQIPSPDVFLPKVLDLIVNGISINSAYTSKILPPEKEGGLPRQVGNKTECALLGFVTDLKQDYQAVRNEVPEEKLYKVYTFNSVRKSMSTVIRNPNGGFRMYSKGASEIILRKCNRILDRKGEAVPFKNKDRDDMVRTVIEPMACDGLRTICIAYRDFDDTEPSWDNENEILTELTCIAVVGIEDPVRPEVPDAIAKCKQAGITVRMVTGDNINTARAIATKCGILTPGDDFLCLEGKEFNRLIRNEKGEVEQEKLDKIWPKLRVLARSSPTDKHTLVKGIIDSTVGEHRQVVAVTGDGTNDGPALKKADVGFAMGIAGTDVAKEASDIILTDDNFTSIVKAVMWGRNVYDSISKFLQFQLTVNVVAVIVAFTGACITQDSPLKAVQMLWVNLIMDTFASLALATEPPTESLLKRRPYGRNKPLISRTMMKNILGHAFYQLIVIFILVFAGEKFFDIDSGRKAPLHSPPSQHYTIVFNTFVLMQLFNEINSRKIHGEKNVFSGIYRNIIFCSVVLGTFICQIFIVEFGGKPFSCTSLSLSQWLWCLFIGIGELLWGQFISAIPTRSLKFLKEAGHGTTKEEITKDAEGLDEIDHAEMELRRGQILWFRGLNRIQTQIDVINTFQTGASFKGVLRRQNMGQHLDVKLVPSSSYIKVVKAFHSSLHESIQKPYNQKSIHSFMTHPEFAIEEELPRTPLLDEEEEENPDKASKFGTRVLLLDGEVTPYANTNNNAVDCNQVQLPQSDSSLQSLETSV

[10] = biological target: PF-7802-labelled proteins in ARPE-19 cells (Homo sapiens, UniProt P35579)
Sequence of UniProt P35579 (P35579 whole entry): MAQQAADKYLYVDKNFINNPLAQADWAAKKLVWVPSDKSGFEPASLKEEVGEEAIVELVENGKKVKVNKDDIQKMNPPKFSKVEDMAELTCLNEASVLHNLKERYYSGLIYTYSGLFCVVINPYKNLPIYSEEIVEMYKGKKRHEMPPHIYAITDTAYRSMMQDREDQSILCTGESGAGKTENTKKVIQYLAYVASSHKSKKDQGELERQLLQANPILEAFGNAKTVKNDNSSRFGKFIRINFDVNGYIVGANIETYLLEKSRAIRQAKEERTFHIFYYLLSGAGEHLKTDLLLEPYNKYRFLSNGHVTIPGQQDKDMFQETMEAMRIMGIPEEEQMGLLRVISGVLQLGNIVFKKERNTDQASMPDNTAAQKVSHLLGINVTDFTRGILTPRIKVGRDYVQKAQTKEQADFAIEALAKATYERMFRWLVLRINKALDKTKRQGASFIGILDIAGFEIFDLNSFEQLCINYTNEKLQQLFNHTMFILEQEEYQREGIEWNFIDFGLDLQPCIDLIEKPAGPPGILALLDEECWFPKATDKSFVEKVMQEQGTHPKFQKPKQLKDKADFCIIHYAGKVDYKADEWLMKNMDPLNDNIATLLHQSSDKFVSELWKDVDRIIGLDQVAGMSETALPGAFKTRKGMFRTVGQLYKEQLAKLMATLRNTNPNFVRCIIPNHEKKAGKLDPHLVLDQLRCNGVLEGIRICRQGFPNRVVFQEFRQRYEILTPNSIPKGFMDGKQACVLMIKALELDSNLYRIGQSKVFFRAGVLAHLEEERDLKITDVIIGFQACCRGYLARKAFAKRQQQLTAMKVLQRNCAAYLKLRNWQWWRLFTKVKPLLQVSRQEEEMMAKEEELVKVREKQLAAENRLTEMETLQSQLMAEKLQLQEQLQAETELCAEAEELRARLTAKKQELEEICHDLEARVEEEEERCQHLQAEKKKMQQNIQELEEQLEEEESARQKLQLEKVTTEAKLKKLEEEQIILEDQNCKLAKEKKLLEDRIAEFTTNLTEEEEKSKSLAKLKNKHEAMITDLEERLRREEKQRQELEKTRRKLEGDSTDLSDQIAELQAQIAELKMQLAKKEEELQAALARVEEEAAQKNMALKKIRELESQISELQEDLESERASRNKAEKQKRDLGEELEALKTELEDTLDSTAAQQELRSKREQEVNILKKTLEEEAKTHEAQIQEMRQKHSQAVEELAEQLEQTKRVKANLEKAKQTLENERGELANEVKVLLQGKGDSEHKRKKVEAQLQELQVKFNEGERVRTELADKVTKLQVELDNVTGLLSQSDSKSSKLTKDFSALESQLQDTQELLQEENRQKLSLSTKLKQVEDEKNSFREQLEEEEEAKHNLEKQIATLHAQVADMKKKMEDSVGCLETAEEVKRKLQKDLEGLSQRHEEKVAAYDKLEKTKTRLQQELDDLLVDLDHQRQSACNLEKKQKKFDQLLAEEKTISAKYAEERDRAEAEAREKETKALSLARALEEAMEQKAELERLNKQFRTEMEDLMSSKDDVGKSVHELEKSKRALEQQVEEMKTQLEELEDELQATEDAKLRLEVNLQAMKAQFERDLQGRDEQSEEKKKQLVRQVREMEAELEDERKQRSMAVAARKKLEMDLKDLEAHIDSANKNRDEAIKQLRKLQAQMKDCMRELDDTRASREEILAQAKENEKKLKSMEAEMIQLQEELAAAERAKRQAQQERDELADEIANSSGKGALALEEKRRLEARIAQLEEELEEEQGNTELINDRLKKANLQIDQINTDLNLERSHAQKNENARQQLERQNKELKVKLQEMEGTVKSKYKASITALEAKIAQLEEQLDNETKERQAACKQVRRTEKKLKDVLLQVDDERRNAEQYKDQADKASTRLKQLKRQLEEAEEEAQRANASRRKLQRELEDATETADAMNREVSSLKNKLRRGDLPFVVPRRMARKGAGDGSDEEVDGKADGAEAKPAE

[11] = biological target: PF-7802-labelled proteins in ARPE-19 cells (Homo sapiens, UniProt Q71U36); settings: Q71U36 TUBA1A Tubulin alpha-1A chain
[12] = biological target: PF-7802-labelled proteins in ARPE-19 cells (Homo sapiens, UniProt P0C0S5); settings: P0C0S5 H2AFZ Histone H2A.Z
[13] = biological target: PF-7802-labelled proteins in ARPE-19 cells (Homo sapiens, UniProt O14950); settings: protein MYL12B Myosin regulatory light chain 12B (O14950); replicates in separate columns
[14] = biological target: PF-7802-labelled proteins in ARPE-19 cells (Homo sapiens, UniProt Q9BQB6); settings: protein VKORC1 Vitamin K epoxide reductase complex subunit 1 (Q9BQB6); replicate R2
[15] = biological target: PF-7802-labelled proteins in ARPE-19 cells (Homo sapiens, UniProt P55265); settings: protein ADAR Double-stranded RNA-specific adenosine deaminase (P55265)
[16] = biological target: PF-7802-labelled proteins in ARPE-19 cells (Homo sapiens, UniProt Q9Y696); settings: protein CLIC4 Chloride intracellular channel protein 4 (Q9Y696)
[17] = biological target: PF-7802-labelled proteins in ARPE-19 cells (Homo sapiens, UniProt O75947); settings: protein ATP5H ATP synthase subunit d, mitochondrial (O75947)
Sequence of UniProt O75947 (O75947 whole entry): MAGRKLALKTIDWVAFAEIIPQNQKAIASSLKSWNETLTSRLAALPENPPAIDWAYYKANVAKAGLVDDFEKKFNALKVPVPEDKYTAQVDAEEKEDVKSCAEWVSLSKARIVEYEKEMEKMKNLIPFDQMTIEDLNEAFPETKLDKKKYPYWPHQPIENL

[18] = biological target: PF-7802-labelled proteins in ARPE-19 cells (Homo sapiens, UniProt O75915); settings: protein ARL6IP5 PRA1 family protein 3 (O75915)
[19] = biological target: PF-7802-labelled proteins in ARPE-19 cells (Homo sapiens, UniProt P02511); settings: protein CRYAB Alpha-crystallin B chain (P02511)
[20] = biological target: PF-7802-labelled proteins in ARPE-19 cells (Homo sapiens, UniProt P84077); settings: protein ARF1 ADP-ribosylation factor 1 (P84077)
Sequence of UniProt P84077 (P84077 whole entry): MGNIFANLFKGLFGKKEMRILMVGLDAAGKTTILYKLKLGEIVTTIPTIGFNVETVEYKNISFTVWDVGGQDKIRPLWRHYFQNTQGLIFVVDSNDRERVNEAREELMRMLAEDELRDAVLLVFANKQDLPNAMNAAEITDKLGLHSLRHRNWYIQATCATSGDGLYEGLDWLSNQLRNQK

[21] = biological target: PF-7802-labelled proteins in ARPE-19 cells (Homo sapiens, UniProt Q14247); settings: protein CTTN Src substrate cortactin (Q14247)
[22] = biological target: PF-7802-labelled proteins in ARPE-19 cells (Homo sapiens, UniProt O00231); settings: protein PSMD11 26S proteasome non-ATPase regulatory subunit 11, O00231
[23] = biological target: PF-7802-labelled proteins in ARPE-19 cells (Homo sapiens, UniProt P11310); settings: protein ACADM Medium-chain specific acyl-CoA dehydrogenase, mitochondrial (P11310)
[24] = biological target: PF-7802-labelled proteins in ARPE-19 cells (Homo sapiens, UniProt P04080); settings: protein CSTB Cystatin-B (P04080)
Sequence of UniProt P04080 (P04080 whole entry, the tested form may be a part): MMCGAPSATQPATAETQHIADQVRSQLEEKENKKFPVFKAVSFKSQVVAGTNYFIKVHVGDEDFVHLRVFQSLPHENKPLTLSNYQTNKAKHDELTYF

[25] = biological target: PF-7802-labelled proteins in ARPE-19 cells (Homo sapiens, UniProt O00151); settings: protein PDLIM1 PDZ and LIM domain protein 1 (O00151); replicates in separate columns
[26] = biological target: PF-7802-labelled proteins in ARPE-19 cells (Homo sapiens, UniProt Q9HDC9); settings: protein APMAP Adipocyte plasma membrane-associated protein (Q9HDC9)
Sequence of UniProt Q9HDC9 (Q9HDC9 whole entry): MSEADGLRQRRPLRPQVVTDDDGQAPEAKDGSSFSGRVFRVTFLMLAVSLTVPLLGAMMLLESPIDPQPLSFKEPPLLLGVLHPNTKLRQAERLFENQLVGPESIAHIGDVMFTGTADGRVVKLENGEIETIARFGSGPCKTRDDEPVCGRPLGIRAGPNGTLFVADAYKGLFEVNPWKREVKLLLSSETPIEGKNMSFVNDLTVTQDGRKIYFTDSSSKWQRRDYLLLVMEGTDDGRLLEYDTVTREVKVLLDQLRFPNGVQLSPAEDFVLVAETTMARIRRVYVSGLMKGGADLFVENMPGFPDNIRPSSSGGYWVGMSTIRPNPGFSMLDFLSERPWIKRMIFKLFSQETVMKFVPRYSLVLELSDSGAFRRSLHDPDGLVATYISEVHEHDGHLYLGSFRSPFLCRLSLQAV

Sequence of UniProt P11142 (P11142 whole entry): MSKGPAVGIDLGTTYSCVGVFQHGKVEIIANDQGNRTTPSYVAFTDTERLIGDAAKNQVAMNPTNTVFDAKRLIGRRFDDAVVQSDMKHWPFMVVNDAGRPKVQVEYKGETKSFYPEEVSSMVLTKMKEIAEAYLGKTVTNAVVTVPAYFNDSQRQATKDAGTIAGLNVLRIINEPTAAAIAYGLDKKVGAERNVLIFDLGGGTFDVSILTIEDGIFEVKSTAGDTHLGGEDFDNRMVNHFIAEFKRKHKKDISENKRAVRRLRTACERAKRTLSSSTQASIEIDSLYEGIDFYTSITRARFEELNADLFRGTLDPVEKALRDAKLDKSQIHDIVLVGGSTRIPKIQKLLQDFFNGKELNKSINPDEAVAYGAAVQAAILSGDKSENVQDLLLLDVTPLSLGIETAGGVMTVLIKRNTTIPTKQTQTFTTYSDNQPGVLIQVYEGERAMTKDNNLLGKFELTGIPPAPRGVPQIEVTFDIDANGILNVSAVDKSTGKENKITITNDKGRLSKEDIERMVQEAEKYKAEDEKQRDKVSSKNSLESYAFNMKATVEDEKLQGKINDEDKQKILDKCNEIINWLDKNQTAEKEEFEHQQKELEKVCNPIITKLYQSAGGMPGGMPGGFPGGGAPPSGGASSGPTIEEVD

CNC1CCN(C(=O)C[C@@H](Cc2ccccc2)C(=O)N[C@@H](CSC)C(=O)N[C@@H](CC2CCCCC2)[C@@H](O)C(=O)OC(C)C)CC1 [CP-108671, reference compound]
SILAC ratio (DMSO/CP-108671) ([1]; P11142 HSPA8 Heat shock cognate 71 kDa protein): 0.70
Median SILAC Ratio (Heavy/Light) ([1]; protein HSPA8 Heat shock cognate 71 kDa protein (P11142), one column per replicate): 1.431 and 0.8416
SILAC ratio (DMSO/CP-108671) [2]: 0.90
SILAC ratio (DMSO/CP-108671) ([3]; P68133 ACTA1 Actin, alpha skeletal muscle): 0.81
Median SILAC Ratio (Heavy/Light) ([3]; protein ACTA1 Actin, alpha skeletal muscle (P68133)): 1.236
SILAC ratio (DMSO/CP-108671) ([4]; P45880 VDAC2 Voltage-dependent anion-selective channel protein 2): 0.89
Median SILAC Ratio (Heavy/Light) ([4]; VDAC2 Voltage-dependent anion-selective channel protein 2 (P45880)): 1.195 and 0.8073
SILAC ratio (DMSO/CP-108671) ([5]; Q02878 RPL6 60S ribosomal protein L6): 0.69
Median SILAC Ratio (Heavy/Light) ([5]; protein RPL6 60S ribosomal protein L6, Q02878): 1.46
SILAC ratio (DMSO/CP-108671) ([6]; Q00610 CLTC Clathrin heavy chain 1): 0.76
Median SILAC Ratio (Heavy/Light) ([6]; protein CLTC Clathrin heavy chain 1 (Q00610)): 1.312
Median SILAC Ratio (Heavy/Light) [7]: 2.128
SILAC ratio (DMSO/CP-108671) ([8]; P06576 ATP5B ATP synthase subunit beta, mitochondrial): 1.01
Median SILAC Ratio (Heavy/Light) ([8]; protein ATP5B ATP synthase subunit beta, mitochondrial (P06576)): 0.9647 and 1.021
SILAC ratio (DMSO/CP-108671) ([9]; P23634 ATP2B4 Plasma membrane calcium-transporting ATPase 4): 0.75
Median SILAC Ratio (Heavy/Light) ([9]; protein ATP2B4 Plasma membrane calcium-transporting ATPase 4 (P23634)): 1.341
SILAC ratio (DMSO/CP-108671) ([10]; P35579 MYH9 Myosin-9): 0.55
Median SILAC Ratio (Heavy/Light) ([10]; protein MYH9 Myosin-9 (P35579), replicates in separate columns): 1.87 and 0.9103
SILAC ratio (DMSO/CP-108671) [11]: 0.45
SILAC ratio (DMSO/CP-108671) [12]: 0.98
Median SILAC Ratio (Heavy/Light) [13]: 1.915

Cc1cc([C@H]2C[C@H]3[C@@H](C)SC(N)=N[C@@]3(c3ccc(F)cc3F)CO2)on1 [PF-9283]
Median SILAC Ratio (Heavy/Light) [14]: 0.967
Median SILAC Ratio (Heavy/Light) [15]: 1.375
Median SILAC Ratio (Heavy/Light) [16]: 2.025
Median SILAC Ratio (Heavy/Light) [17]: 1.8
Median SILAC Ratio (Heavy/Light) [18]: 0.1602
Median SILAC Ratio (Heavy/Light) [19]: 1.448
Median SILAC Ratio (Heavy/Light) [20]: 0.6905 and 0.7654
Median SILAC Ratio (Heavy/Light) [21]: 0.6821
Median SILAC Ratio (Heavy/Light) [22]: 1.73
Median SILAC Ratio (Heavy/Light) [23]: 2.337
Median SILAC Ratio (Heavy/Light) [24]: 56.1629
Median SILAC Ratio (Heavy/Light) [25]: 2.061
Median SILAC Ratio (Heavy/Light) [26]: 1.173

Where “and” joins values, the source holds several entries; their conditions need not be identical. Equal entries are not always repeated.
